Some of the results follow.

Experiment [1] concerns HSkMC (human skeletal muscle cells). As to the kind of experiment: cytotoxicity call (relative viability < 0.9). The conditions noted are these: 10 µM.
Experiment [2] deals with HepG2. Nature of the experiment: cytotoxicity call (relative viability < 0.9). The conditions noted are these: 10 µM.
The subject of experiment [3] is S. aureus RN4220. As to the kind of experiment: growth inhibition call (relative growth <= 0.2). The conditions noted are these: 50 µM.

With `Cc1noc(C)c1NC(=O)Nc1ccc2c(c1)C(=O)N([C@@H](C)CO)C[C@H](C)[C@@H](CN(C)C(=O)Nc1ccc(C(F)(F)F)cc1)OCCCC[C@H](C)O2`, the cytotoxicity call in experiment [1] and in experiment [2] was “inactive” in each case. The growth inhibition call in experiment [3] is “inactive”.

For `C/C(=C\CC[C@@H](C)[C@H]1C[C@@H](O)[C@@]2(C)[C@H]3CC[C@H]4C(C)(C)[C@@H](O[C@@H]5O[C@@H](CO[C@H]6O[C@@H](CO)[C@@H](O)[C@@H](O)[C@@H]6O)[C@@H](O)[C@@H](O)[C@@H]5O)CC[C@@]45C[C@@]35C[C@@H](O)[C@]12C)C(=O)O[C@H]1O[C@@H](CO)[C@@H](O)[C@@H]1O`, the cytotoxicity call in experiment [1] and in experiment [2] was “inactive” in each case. Also, the growth inhibition call in experiment [3] was “inactive”.

Turning to `C[C@@H]1CCCCO[C@H](CN(C)C(=O)Nc2ccccc2)[C@@H](C)CN([C@@H](C)CO)C(=O)c2cc(NS(=O)(=O)c3ccccc3)ccc2O1`, the cytotoxicity call in experiment [1] and in experiment [2] was “inactive” each time. Also, the growth inhibition call in experiment [3] is “inactive”.

On to `COc1cccc(S(=O)(=O)Nc2ccc3c(c2)[C@@H]2C[C@H](CC(=O)NCc4ccccc4F)O[C@@H](CO)[C@@H]2O3)c1`, for which the cytotoxicity call in experiment [1] and in experiment [2] was “inactive” each time. For the same molecule, in experiment [3], the growth inhibition call was “inactive”.

Consider `C[C@H](CO)N1C[C@H](C)[C@@H](CN(C)S(=O)(=O)c2ccc(C(F)(F)F)cc2)OCc2ccccc2-c2ccccc2C1=O`, for which the cytotoxicity call in experiment [1] and in experiment [2] was “inactive” in each case. Moreover, the growth inhibition call in experiment [3] was “inactive”.

Take `COc1ccc([Si](C)(C)[C@H]2[C@H](CCn3cc([C@H](O)c4ccccc4)nn3)O[C@@]3(C(=O)N(Cc4cccc(N5C(=O)c6cccc7cccc5c67)c4)c4ccccc43)[C@@H]2C)cc1`: the cytotoxicity call in experiment [1] and in experiment [2] was “inactive” each time. In experiment [3], the growth inhibition call was “inactive”.

For `CNC(=O)Cc1ccccc1`, the cytotoxicity call in experiment [1] and in experiment [2] was “inactive” each time. The growth inhibition call in experiment [3] is “inactive”.

As for `Cc1ccccc1S(=O)(=O)N1C[C@@H](O)COC[C@@H]2O[C@H](CC(=O)N3CCC(Cc4ccccc4)CC3)CC[C@H]21`, the cytotoxicity call in experiment [1] and in experiment [2] was “inactive” each time. In addition, in experiment [3], the growth inhibition call is “inactive”.

As to `CO[C@@H]1CN(C)C(=O)c2ccc(NS(=O)(=O)CC(F)(F)F)cc2OC[C@H](C)N(Cc2cccnc2)C[C@H]1C`, the cytotoxicity call in experiment [1] and in experiment [2] was “inactive” in each case. Besides, in experiment [3], the growth inhibition call was “inactive”.

For the molecule `CC(C)C[C@H]1NC(=O)[C@@H](CCCN)NC(=O)[C@H](C(C)C)NC(=O)[C@H]2CCCN2C(=O)[C@@H](Cc2ccccc2)NC(=O)[C@@H](CC(C)C)NC(=O)[C@@H](CCCN)NC(=O)[C@H](C(C)C)NC(=O)[C@H]2CCCN2C(=O)[C@@H](Cc2ccccc2)NC1=O`, the cytotoxicity call in experiment [1] and in experiment [2] was “active” throughout. The growth inhibition call in experiment [3] was “inactive”.

In the case of `C[C@@H]1CN([C@H](C)CO)C(=O)Cc2cc(NC(=O)Nc3ccc4c(c3)OCO4)ccc2O[C@@H]1CN(C)S(=O)(=O)c1cn(C)cn1`, the cytotoxicity call in experiment [1] and in experiment [2] was “inactive” throughout. In addition, in experiment [3], the growth inhibition call was “inactive”.

These data come from the antibiotic and cytotoxicity screens of Wong et al. (2023).
